# From the supplement of paper PMC3334620
# Over roughly 33,000 sequences, “E-score (-0.5 to 0.5)” has its median near -0.012; the highest 2% begin near 0.27. The list shows a part of the results.
# Target: T1, Vhr1 (UniProt P40522)
# T1 sequence: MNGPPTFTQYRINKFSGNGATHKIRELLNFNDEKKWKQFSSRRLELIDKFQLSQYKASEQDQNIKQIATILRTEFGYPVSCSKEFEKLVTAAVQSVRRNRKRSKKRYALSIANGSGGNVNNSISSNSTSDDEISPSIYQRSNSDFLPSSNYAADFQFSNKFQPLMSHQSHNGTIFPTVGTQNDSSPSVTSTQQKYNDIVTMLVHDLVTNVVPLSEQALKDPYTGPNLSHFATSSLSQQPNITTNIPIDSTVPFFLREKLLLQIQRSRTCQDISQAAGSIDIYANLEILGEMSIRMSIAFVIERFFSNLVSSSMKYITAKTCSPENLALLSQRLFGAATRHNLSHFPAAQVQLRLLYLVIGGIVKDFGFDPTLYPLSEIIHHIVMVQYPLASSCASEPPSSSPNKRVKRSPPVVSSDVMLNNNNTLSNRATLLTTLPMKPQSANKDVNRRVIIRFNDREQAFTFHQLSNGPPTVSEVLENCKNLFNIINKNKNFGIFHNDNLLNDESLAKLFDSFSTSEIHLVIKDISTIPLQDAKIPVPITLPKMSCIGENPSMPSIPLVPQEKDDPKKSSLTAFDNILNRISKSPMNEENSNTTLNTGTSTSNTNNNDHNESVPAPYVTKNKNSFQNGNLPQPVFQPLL
# Experiment: PBM E-score (8-mer binding enrichment) (E-score (-0.5 to 0.5)); higher = stronger / more preferred TF binding; most listed sequences are background and not binding sites
# Conditions: protein concentration: 200 nM; construct: GST-full length
# In short: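 GST-tagged yeast TFs (full-length or DNA-binding domain) were made by PURExpress in vitro transcription/translation and applied at about 100-200 nM to universal all-10-mer Agilent arrays. The arrays were made double-stranded by primer extension, on fresh or once-stripped slides. Bound protein was detected with fluorescent anti-GST, and scans were normalised with masliner. Each ungapped eight-base word, pooled with its reverse complement, received an E-score (modified Wilcoxon-Mann-Whitney statistic) from the Universal PBM Analysis Suite.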
row,Sequence,PBM E-score
1,GGGTTGAA,-0.137
2,CGCTAGGA,-0.0889
3,CGAGTAGA,-0.0457
4,ACAAAATC,-0.0609
5,ACTTGATG,0.135
6,GGGAATCA,0.307
7,CAAAGCCG,-0.295
8,ACAAAAGT,-0.0668
9,TAAAGGCA,-0.226
10,AAGGGACG,-0.207
11,AGGGGCCC,-0.126
12,GCACAAGC,0.0452
13,CTAATTAG,0.00806
14,ATTCAGAA,0.0691
15,AGAGCTAC,-0.161
16,CGGCACTC,-0.153
17,CCGAAGGA,0.0169
18,CACGATCC,0.151
19,GACTTTCA,-0.139
20,GACAACCC,0.103
21,AGCGGATG,0.0779
22,ATACACGG,-0.0771

row,Sequence,PBM E-score
1,TGATAGCA,0.194
2,CTGTCCGC,-0.0104
3,AAATGATA,0.0919
4,ATGTAAAT,-0.0317
5,TCCGTTAA,-0.0769
6,CGGTTCCC,-0.0826
7,GGGACAAA,-0.0798
8,CTCCAGAC,0.0448
9,TAGGTTAA,0.0291
10,CAACCGCC,-0.102
11,CTTATGTC,-0.0934
12,CTATAGCC,-0.207
13,CGGTGCAC,-0.0366
14,ACTATTCA,0.0281
15,AAGCGCTT,0.0401
16,CCGTATAC,-0.0179
17,CCGAGACA,0.106
18,ATCCGGTG,0.219
19,CATGGCCC,0.0652
20,GCTAAGCA,-0.0472
21,CGTTGTAA,-0.235
22,GTAAGATA,-0.00527

row,Sequence,PBM E-score
1,ACCCTGGC,-0.0985
2,ATATGGTA,0.248
3,AACGTAGT,-0.125
4,CACATTGA,0.108
5,GGACGAAC,-0.0308
6,CCGAATAC,0.193
7,AAATAATG,-0.0337
8,CAACTTTA,0.00592
9,GAAACGGC,0.0133
10,CCAAGCAC,0.112
11,GCCCGAGA,0.147
12,GATCACAA,0.0104
13,ATATACAA,0.196
14,TATCAAAA,-0.092
15,ACTACATC,0.239
16,CTCGTCAC,0.164
17,CCTCTTGA,-0.0805
18,GGCCTGTA,-0.214
19,GTGGGGAA,0.0488
20,AAGGCCAT,-0.0754
21,CTGCGCAC,0.0623
22,GTGTGTAA,0.194

row,Sequence,PBM E-score
1,ACGATCGT,0.131
2,AGAACCAC,0.0507
3,CTCAATTC,-0.0904
4,CTCACGAG,-0.0986
5,AGAGGTTC,-0.0731
6,ATCATGCA,0.192
7,GGTGTTAA,0.00329
8,GCCGGTCA,-0.086
9,GCGAAACA,0.0062
10,ACCATTGC,-0.0447
11,CGAGTTAC,0.149
12,CCAGATGA,0.0965
13,TAGGTCCA,-0.167
14,ATTATCAC,0.117
15,TATCTTAA,-0.0444
16,AATACGTA,0.129
17,ATAAGGAC,-0.0918
18,CAACGGTA,-0.0273
19,ACACGTGC,0.0294
20,ACGGGAGC,-0.114
